This passage reports thermal melting temperature results from the supplement of paper PMC7726561.

Over roughly 1,100 sequences, “thermal melting temperature (Tm) of peptide-HLA complex” has its median near 58; the lowest 2% begin near 42. Some of the results follow.
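Further: cell lysates heated 10 min at 37–73 °C, remaining pHLA pulled down with pan-class I antibody, peptides quantified by DIA-MS versus 37 °C, Tm where half the complex is lost.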

The target in this test is HLA-A*02:01. As to the kind of experiment: thermal melting temperature (Tm) of peptide-HLA complex; higher = more thermostable pHLA complex. The following applies: C1R-A*02:01.
In the case of ILGIQPPSV, the thermal melting temperature is 56.9 °C.

YLYPDITRL gave a thermal melting temperature of 63.3 °C.

On to VLIPKLPQL, for which the thermal melting temperature came out at 60.2 °C.

Sequence YLISQVEGHQV displayed a thermal melting temperature of 58.7 °C.

ILPERFLAV: the thermal melting temperature came to 60.8 °C.

YLITGNLEKL displayed a thermal melting temperature of 56.5 °C.

For FLAEDPKVTL, the thermal melting temperature was found to be 59 °C.

As to RLSELGITQA, the thermal melting temperature was found to be 59.2 °C.

The sequence KLIPQLPTL showed a thermal melting temperature of 61.5 °C.

Sequence NLLTHIENV yielded a thermal melting temperature of 60.5 °C.

For SLDDTELRL, the thermal melting temperature is 60.2 °C.

As for ALWEDEGVRA, the thermal melting temperature is 52.5 °C.

In turn, ALERLLPQV showed a thermal melting temperature of 59.2 °C.

With GLWEIENNPTV, the thermal melting temperature came out at 60.7 °C.

The sequence IVIGVLHQL displayed a thermal melting temperature of 43 °C.

The sequence SVITQVFHV displayed a thermal melting temperature of 58.7 °C.

VILESDPQQVV: the thermal melting temperature was found to be 40.1 °C.

Sequence FLYDDNQRV yielded a thermal melting temperature of 57.5 °C.

In turn, AMSNLVPPVEL returned a thermal melting temperature of 53.7 °C.

With IAPPVPLKA, the thermal melting temperature was found to be 53 °C.

KLLDEAIQAV gave a thermal melting temperature of 62 °C.

For the sequence GLIEKNIEL, the thermal melting temperature came out at 61.4 °C.

SLLDPVPEV gave a thermal melting temperature of 62.5 °C.

WLAEKLPTL gave a thermal melting temperature of 62 °C.

The sequence RLQEEINEV registered a thermal melting temperature of 55.3 °C.

SQTFVNPHV displayed a thermal melting temperature of 57.8 °C.

As to ALVVQVAEA, the thermal melting temperature turned out to be 56.4 °C.

With ALIDGKNFSA, the thermal melting temperature stood at 53.5 °C.

The sequence ATYVFLHTV displayed a thermal melting temperature of 56.8 °C.

ILEEGKEILV gave a thermal melting temperature of 46.3 °C.

Turning to YLTAFTKNL, the thermal melting temperature came to 60.8 °C.

For the sequence VLIDYQRNV, the thermal melting temperature is 60.1 °C.

YQWDDPDPRL showed a thermal melting temperature of 48.9 °C.

Consider YGLPVVVKL, for which the thermal melting temperature came to 51.8 °C.

In turn, SLAQYNPKL came in with a thermal melting temperature of 61.1 °C.

In turn, VLLSEQGDVKL registered a thermal melting temperature of 52.6 °C.
